± gives the standard deviation of the averaged measurements. In all, about 4,100 sequences were measured (“relative kcat/Km (krel) vs genomic leader AAAGAU”: median about 1.7, highest 2% from about 6.5 on). Only a part is listed here, and it is no random draw.
Biological target: T1, E. coli RNase P holoenzyme (M1 P RNA + rnpA protein) (UniProt P0A7Y8)
T1 sequence: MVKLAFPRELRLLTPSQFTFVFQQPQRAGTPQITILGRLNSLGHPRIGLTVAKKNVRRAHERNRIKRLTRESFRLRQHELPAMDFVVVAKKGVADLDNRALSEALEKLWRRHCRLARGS
Assay: relative kcat/Km (krel) vs genomic leader AAAGAU (relative (reference leader = 1)); higher = faster RNase P cleavage
Experimental: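 HTS-Kin: a pool of ptRNA-Met (21C construct) with all 4096 combinations of 5' leader nucleotides N(-6) to N(-1) was processed in vitro by E. coli RNase P (P RNA + rnpA/C5 protein) under multiple-turnover conditions at 37 C, pH 8, 17.5 mM MgCl2. Residual substrate was Illumina-sequenced at several fractions reacted, and relative kcat/Km (krel) was computed by internal competition kinetics, calibrated to the genomic leader (AAAGAU = 1). The listed hexamer is the varied N(-6)..N(-1) leader (DNA letters), and it sits between a fixed 5' stem-loop flank (GCAUGCACGAAAGUGCGUGCUAUGAA) and the mature tRNA-Met starting GGCUACGUAGCUCAGUUGG. Two technical replicates are averaged.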

[1] = fraction of substrate reacted: ~9-10% (9.79% repeat 1, 9.1% repeat 2)
[2] = fraction of substrate reacted: ~13-16% (15.68% repeat 1, 13.17% repeat 2)
[3] = fraction of substrate reacted: ~26-29% (28.66% repeat 1, 26.4% repeat 2)

Sequence | relative kcat/Km [1] | relative kcat/Km [2] | relative kcat/Km [3]
ATGTTC | 1.44 ± 0.31 | 1.79 ± 0.7 | 2.71 ± 0.94
TAGATC | 2.02 ± 0.84 | 2.35 ± 0.3 | 3.07 ± 1.1
CCTCCG | – | – | 0.934 ± 0.35
GTGTGA | – | 1.68 ± 0.93 | 1.79 ± 0.78
GAAGTT | 1.12 ± 0.12 | 1.37 ± 0.051 | 1.22 ± 0.6
CGGCCA | 0.559 ± 0.041 | – | 0.432 ± 0.16
TAACAT | 2.61 ± 0.92 | 3.65 ± 0.29 | 5.06 ± 2.1
GGGATG | 0.585 ± 0.41 | – | 0.779 ± 0.15
TAATGG | 0.461 ± 0.18 | – | –
TACAGA | 4.52 ± 2 | 5.66 ± 0.35 | 8.3 ± 3
AGGCGC | – | 1.07 ± 0.53 | 1.44 ± 0.24
AGCCCT | 2.02 ± 0.54 | 1.22 ± 0.1 | 2.28 ± 0.39
TTAATA | 1.94 ± 0.59 | 2.09 ± 0.08 | 2.85 ± 1
AAATCT | 1.86 ± 0.61 | 2.09 ± 0.095 | 2.8 ± 0.68
TGAAAA | 2.47 ± 0.28 | 2.65 ± 0.25 | 4.23 ± 1.5
TCAGTT | 1.27 ± 0.83 | 1.27 ± 0.28 | 1.6 ± 0.62
ATAGCG | – | – | 1.1 ± 0.027
CGAGCA | 1.21 ± 0.12 | 0.823 ± 0.73 | 1.44 ± 0.42
CTCTAC | 4.76 ± 1.6 | – | –
TCAGTC | 1.48 ± 0.59 | 1.89 ± 0.021 | 2.62 ± 1.1
TGATGT | – | 1.13 ± 1.1 | 1.37 ± 0.91
TGGGAC | – | 0.674 ± 0.39 | –
AATCGA | 2.6 ± 0.85 | 2.463 ± 0.015 | 4.14 ± 1.9
ACGGCT | – | – | 0.359 ± 0.16
GCCTTT | 3.36 ± 1.7 | 3.71 ± 0.066 | 5.06 ± 1.7
ACGATA | 2.03 ± 1.6 | 1.57 ± 0.086 | 1.27 ± 0.066
CCGTGA | 2.27 ± 0.11 | 2.27 ± 0.85 | 3 ± 0.73
CCATAT | 3.72 ± 1 | 4.23 ± 1.3 | 5.88 ± 2

Sequence | relative kcat/Km [1] | relative kcat/Km [2] | relative kcat/Km [3]
AGACCT | 1.34 ± 0.098 | 1.72 ± 0.086 | 2.41 ± 0.89
CGTCCC | 1.61 ± 0.99 | 2.29 ± 0.97 | 2.43 ± 0.33
TGTTTG | – | 0.726 ± 0.29 | 1.85 ± 0.1
TTCTCA | 4.88 ± 2.1 | 5.74 ± 0.87 | –
CCGGAT | 1.2 ± 0.079 | 1.3 ± 0.8 | 1.21 ± 0.76
CAGCTG | – | – | 1.15 ± 0.088
GGTGTT | – | 1.36 ± 0.86 | –
CGTTCA | 1.32 ± 0.27 | 1.73 ± 0.49 | 3.09 ± 1
TTTATC | 2.68 ± 1.5 | 2.72 ± 0.24 | 3.47 ± 1.3
GGGAGT | 0.595 ± 0.46 | – | 1.29 ± 0.75
TCTTGC | 2.52 ± 0.3 | 4.14 ± 0.4 | 5.64 ± 1.7
ATACGC | 2.11 ± 0.55 | 2.7 ± 0.22 | 3.63 ± 1.5
TTGTCT | 1.72 ± 0.062 | 1.78 ± 0.32 | 3.01 ± 1.3
AGCTAT | 4.03 ± 1.8 | 3.39 ± 1.1 | 5.23 ± 1.9
TTCTAC | 5.32 ± 1.5 | 7.7 ± 1.3 | 10.6 ± 4.4
GAAGAA | 2.23 ± 0.43 | 2.71 ± 0.3 | 2.76 ± 0.48
AGCATA | 1.6 ± 0.75 | 1.84 ± 0.39 | 3.11 ± 1.2
TGGTTC | – | – | 1.36 ± 0.94
TCAATC | 1.69 ± 0.066 | 2.26 ± 0.77 | 3.06 ± 1.1
CGGACA | 0.696 ± 0.1 | 0.739 ± 0.49 | 0.747 ± 0.23
CCACAG | – | – | 1.21 ± 0.98
GCTTCG | – | – | 1.29 ± 0.4
ACCCGC | 3.03 ± 1.8 | 3.51 ± 0.3 | 4.87 ± 1.5
TCCCGC | 4.31 ± 2.6 | 5.2 ± 0.32 | 7.32 ± 3.2
TGAGCC | – | 1.41 ± 0.22 | 1.26 ± 0.39
CCGTAG | – | 0.954 ± 0.089 | 2.6 ± 0.2
AGCAAC | 2.29 ± 0.43 | 2.39 ± 0.28 | 3.71 ± 1

Source: the supplement of paper PMC9433436
